Experimental data reported in the supplement of paper PMC8728848.
This is one part of the list.

Key:
Assay in all cases: glycan array binding signal (z-score within array); higher = stronger binding
Settings in all cases: glycan notation: IUPAC condensed, linker removed
[1] = target: Fuc(a1-2)[GalNAc(a1-3)]Gal(b1-3)GlcNAc(b1-2)Man(a1-3)[Fuc(a1-2)[GalNAc(a1-3)]Gal(b1-3)GlcNAc(b1-2)Man(a1-6)]Man(b1-4)GlcNAc(b1-4)[Fuc(a1-6)]GlcNAc
Summary of the method: (§1)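 The binding signal is a Z-score computed within each array and averaged over linkers. Arrays of the same protein sequence at different concentrations or buffers were also averaged together. Data originate from 3228 arrays in the Consortium for Functional Glycomics database, kept only where the protein sequence was available.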

[2] = target: Fuc(a1-2)[GalNAc(a1-3)]Gal(b1-3)GlcNAc(b1-3)GalNAc
Summary of the method: as §1

[3] = target: Fuc(a1-2)[GalNAc(a1-3)]Gal(b1-3)GlcNAc(b1-6)GalNAc
Summary of the method: as §1

[4] = target: Fuc(a1-2)[GalNAc(a1-3)]Gal(b1-4)Glc
Summary of the method: as §1

[5] = target: Fuc(a1-2)[GalNAc(a1-3)]Gal(b1-4)GlcNAc
Summary of the method: as §1

[6] = target: Fuc(a1-2)[GalNAc(a1-3)]Gal(b1-4)GlcNAc(b1-2)Man
Summary of the method: as §1

[7] = target: Fuc(a1-2)[GalNAc(a1-3)]Gal(b1-4)GlcNAc(b1-2)Man(a1-3)[Fuc(a1-2)[GalNAc(a1-3)]Gal(b1-4)GlcNAc(b1-2)Man(a1-6)]Man(b1-4)GlcNAc(b1-4)GlcNAc
Summary of the method: as §1

[8] = target: Fuc(a1-2)[GalNAc(a1-3)]Gal(b1-4)GlcNAc(b1-2)Man(a1-3)[Fuc(a1-2)[GalNAc(a1-3)]Gal(b1-4)GlcNAc(b1-2)Man(a1-6)]Man(b1-4)GlcNAc(b1-4)[Fuc(a1-6)]GlcNAc
Summary of the method: as §1

[9] = target: Fuc(a1-2)[GalNAc(a1-3)]Gal(b1-4)GlcNAc(b1-3)Gal(b1-4)GlcNAc
Summary of the method: as §1

[10] = target: Fuc(a1-2)[GalNAc(a1-3)]Gal(b1-4)GlcNAc(b1-3)Gal(b1-4)GlcNAc(b1-3)Gal(b1-4)GlcNAc
Summary of the method: as §1

[11] = target: Fuc(a1-2)[GalNAc(a1-3)]Gal(b1-4)GlcNAc(b1-3)GalNAc
Summary of the method: as §1

[12] = target: Fuc(a1-2)[GalNAc(a1-3)]Gal(b1-4)GlcNAc(b1-3)[Fuc(a1-2)[GalNAc(a1-3)]Gal(b1-4)GlcNAc(b1-6)]GalNAc
Summary of the method: as §1

[13] = target: Fuc(a1-2)[GalNAc(a1-3)]Gal(b1-4)GlcNAc(b1-6)GalNAc
Summary of the method: as §1

[14] = target: Fuc(a1-2)[GalNAc(a1-3)]Gal(b1-4)[Fuc(a1-3)]GlcNAc
Summary of the method: as §1

[15] = target: Fuc(a1-2)[GalNAc(a1-3)]Gal(b1-4)[Fuc(a1-3)]GlcNAc(b1-3)GalNAc
Summary of the method: as §1

[16] = target: Fuc(a1-2)[GalNAc(a1-4)]Gal(b1-4)GlcNAc
Summary of the method: as §1

[17] = target: Fuc(a1-2)[GalNAc(b1-3)]Gal
Summary of the method: as §1

Fuc(a1-3)GlcNAc = target: Fuc(a1-3)GlcNAc
Summary of the method: as §1

[18] = target: Fuc(a1-3)[Gal(b1-4)]Glc6S
Summary of the method: as §1

[19] = target: Fuc(a1-3)[Gal(b1-4)]GlcNAc
Summary of the method: as §1

[20] = target: Fuc(a1-3)[Gal(b1-4)]GlcNAc(b1-2)Man
Summary of the method: as §1

[21] = target: Fuc(a1-3)[Gal(b1-4)]GlcNAc(b1-2)Man(a1-3)[Fuc(a1-3)[Gal(b1-4)]GlcNAc(b1-2)Man(a1-6)]Man(b1-4)GlcNAc(b1-4)GlcNAc
Summary of the method: as §1

[22] = target: Fuc(a1-3)[Gal(b1-4)]GlcNAc(b1-2)Man(a1-3)[Fuc(a1-3)[Gal(b1-4)]GlcNAc(b1-2)Man(a1-6)]Man(b1-4)GlcNAc(b1-4)[Fuc(a1-6)]GlcNAc
Summary of the method: as §1

[23] = target: Fuc(a1-3)[Gal(b1-4)]GlcNAc(b1-2)Man(a1-6)[Gal(b1-4)GlcNAc(b1-2)Man(a1-3)]Man(b1-4)GlcNAc(b1-4)GlcNAc
Summary of the method: as §1

[24] = target: Fuc(a1-3)[Gal(b1-4)]GlcNAc(b1-3)Gal(b1-3)[Fuc(a1-4)]GlcNAc
Summary of the method: as §1

[25] = target: Fuc(a1-3)[Gal(b1-4)]GlcNAc(b1-3)GalNAc
Summary of the method: as §1

[26] = target: Fuc(a1-3)[Gal(b1-4)]GlcNAc(b1-4)Gal(b1-4)[Fuc(a1-3)]GlcNAc
Summary of the method: as §1

[27] = target: Fuc(a1-3)[Gal(b1-4)]GlcNAc(b1-4)Gal(b1-4)[Fuc(a1-3)]GlcNAc(b1-4)Gal(b1-4)[Fuc(a1-3)]GlcNAc
Summary of the method: as §1

[28] = target: Fuc(a1-3)[Gal(b1-4)]GlcNAc(b1-6)GalNAc
Summary of the method: as §1

[29] = target: Fuc(a1-3)[Gal(b1-4)]GlcNAc(b1-6)[Gal(b1-3)GlcNAc(b1-3)]Gal(b1-4)Glc
Summary of the method: as §1

[30] = target: Fuc(a1-3)[Gal(b1-4)]GlcNAc6S
Summary of the method: as §1

[31] = target: Fuc(a1-3)[Gal3S(b1-4)]Glc
Summary of the method: as §1

[32] = target: Fuc(a1-3)[Gal3S(b1-4)]Glc6S
Summary of the method: as §1

[33] = target: Fuc(a1-3)[Gal3S(b1-4)]GlcNAc
Summary of the method: as §1

[34] = target: Fuc(a1-3)[Gal3S(b1-4)]GlcNAc6S
Summary of the method: as §1

[35] = target: Fuc(a1-3)[GalNAc(b1-4)]GlcNAc
Summary of the method: as §1

[36] = target: Fuc(a1-3)[GalNAc(b1-4)]GlcNAc6S
Summary of the method: as §1

B1: Gal 8 (Homo sapiens) (protein)
chain: MLSLNNLQNIIYNPVIPYVGTIPDQLDPGTLIVICGHVPSDADRFQVDLQNGSSVKPRADVAFHFNPRFKRAGCIVCNTLINEKWGREEITYDTPFKREKSFEIVIMVLKDKFQVAVNGKHTLLYGHRIGPEKIDTLGIYGKVNIHSIGFSFSSDLQSTQASSLELTEISRENVPKSGTPQLQTVSPSWDLQGHGSETFCSVLWTRVFLEIAFCRPIGLTVASFQSLPFAARLNTPMGPGRTVVVKGEVNANAKSFNVDLLAGKSKDIALHLNPRLNIKAFVRNSFLQESWGEEERNITSFPFSPGMYFEMIIYCDVREFKVAVNGVHSLEYKHRFKELSSIDTLEINGDIHLLEVRSW
[1]
  glycan array binding signal (z-score): 0.935
[2]
  glycan array binding signal (z-score): -0.191
[3]
  glycan array binding signal (z-score): 1.11
[4]
  glycan array binding signal (z-score): 1.42
[5]
  glycan array binding signal (z-score): 1.5
[6]
  glycan array binding signal (z-score): 2.74
[7]
  glycan array binding signal (z-score): 5.81
[8]
  glycan array binding signal (z-score): 1.71
[9]
  glycan array binding signal (z-score): 2.08
[10]
  glycan array binding signal (z-score): 2.05
[11]
  glycan array binding signal (z-score): 0.063
[12]
  glycan array binding signal (z-score): 1.21
[13]
  glycan array binding signal (z-score): 0.331
[14]
  glycan array binding signal (z-score): -0.391
[15]
  glycan array binding signal (z-score): -0.355
[16]
  glycan array binding signal (z-score): -0.357
[17]
  glycan array binding signal (z-score): -0.279
Fuc(a1-3)GlcNAc
  glycan array binding signal (z-score): -0.353
[18]
  glycan array binding signal (z-score): -0.345
[19]
  glycan array binding signal (z-score): -0.398
[20]
  glycan array binding signal (z-score): -0.355
[21]
  glycan array binding signal (z-score): -0.366
[22]
  glycan array binding signal (z-score): -0.355
[23]
  glycan array binding signal (z-score): -0.374
[24]
  glycan array binding signal (z-score): -0.362
[25]
  glycan array binding signal (z-score): -0.358
[26]
  glycan array binding signal (z-score): -0.37
[27]
  glycan array binding signal (z-score): -0.35
[28]
  glycan array binding signal (z-score): -0.356
[29]
  glycan array binding signal (z-score): -0.349
[30]
  glycan array binding signal (z-score): -0.357
[31]
  glycan array binding signal (z-score): -0.356
[32]
  glycan array binding signal (z-score): -0.21
[33]
  glycan array binding signal (z-score): -0.373
[34]
  glycan array binding signal (z-score): -0.21
[35]
  glycan array binding signal (z-score): -0.395
[36]
  glycan array binding signal (z-score): -0.358
